{"source": "the antibiotic and cytotoxicity screens of Wong et al. (2023)", "key": {"HSkMC": {"tested_on": "HSkMC", "assay": "cytotoxicity call (relative viability < 0.9)", "conditions": "10 µM"}, "HepG2": {"tested_on": "HepG2", "assay": "cytotoxicity call (relative viability < 0.9)", "conditions": "10 µM"}, "S. aureus RN4220": {"tested_on": "S. aureus RN4220", "assay": "growth inhibition call (relative growth <= 0.2)", "conditions": "50 µM"}}, "note": "This is one part of the list.", "data": [{"smiles": "O=C(CN1CCOCC1)N[C@H]1CC[C@@H](CCn2cc(C3CCCC3)nn2)O[C@H]1CO", "values": [{"measurement": "cytotoxicity call", "setting": "HSkMC", "value": "inactive"}, {"measurement": "cytotoxicity call", "setting": "HepG2", "value": "inactive"}, {"measurement": "growth inhibition call", "setting": "S. aureus RN4220", "value": "inactive"}]}, {"smiles": "COc1cc(NC(=O)c2cccc(-n3cc(NC(=O)Nc4cccc(C)c4)cn3)c2)cc(OC)c1OC", "values": [{"measurement": "cytotoxicity call", "setting": "HSkMC", "value": "active"}, {"measurement": "cytotoxicity call", "setting": "HepG2", "value": "active"}, {"measurement": "growth inhibition call", "setting": "S. aureus RN4220", "value": "inactive"}]}, {"smiles": "C[C@@H]1CCCCO[C@@H](CN(C)C(=O)Cc2ccccc2)[C@H](C)CN([C@@H](C)CO)C(=O)c2cc(NC(=O)CCC(F)(F)F)ccc2O1", "values": [{"measurement": "cytotoxicity call", "setting": "HSkMC", "value": "inactive"}, {"measurement": "cytotoxicity call", "setting": "HepG2", "value": "inactive"}, {"measurement": "growth inhibition call", "setting": "S. aureus RN4220", "value": "inactive"}]}, {"smiles": "O=C(C1=C[C@H](c2ccsc2)C[C@H](OCCCCO)O1)N1CCN(Cc2ccc3c(c2)OCO3)CC1", "values": [{"measurement": "cytotoxicity call", "setting": "HSkMC", "value": "inactive"}, {"measurement": "cytotoxicity call", "setting": "HepG2", "value": "inactive"}, {"measurement": "growth inhibition call", "setting": "S. aureus RN4220", "value": "inactive"}]}, {"smiles": "Nc1nc(=O)c2c([nH]1)CN(C(=O)[C@H]1CCOC1)CC2", "values": [{"measurement": "cytotoxicity call", "setting": "HSkMC", "value": "inactive"}, {"measurement": "cytotoxicity call", "setting": "HepG2", "value": "inactive"}, {"measurement": "growth inhibition call", "setting": "S. aureus RN4220", "value": "inactive"}]}, {"smiles": "COc1ccc(S(=O)(=O)Nc2ccc3c(c2)C(=O)N([C@H](C)CO)C[C@@H](C)[C@@H](CN(C)S(=O)(=O)c2ccc(Cl)cc2)OCCCC[C@@H](C)O3)cc1", "values": [{"measurement": "cytotoxicity call", "setting": "HSkMC", "value": "inactive"}, {"measurement": "cytotoxicity call", "setting": "HepG2", "value": "inactive"}, {"measurement": "growth inhibition call", "setting": "S. aureus RN4220", "value": "inactive"}]}, {"smiles": "C[C@@H]1CCCCO[C@H](CN(C)S(=O)(=O)c2ccccc2)[C@@H](C)CN([C@H](C)CO)C(=O)c2cc(NC(=O)CCC(F)(F)F)ccc2O1", "values": [{"measurement": "cytotoxicity call", "setting": "HSkMC", "value": "inactive"}, {"measurement": "cytotoxicity call", "setting": "HepG2", "value": "inactive"}, {"measurement": "growth inhibition call", "setting": "S. aureus RN4220", "value": "inactive"}]}, {"smiles": "C[C@H](CO)N1C[C@H](C)[C@H](CN(C)CC2CCOCC2)Oc2cc(Br)ccc2S1(=O)=O", "values": [{"measurement": "cytotoxicity call", "setting": "HSkMC", "value": "inactive"}, {"measurement": "cytotoxicity call", "setting": "HepG2", "value": "inactive"}, {"measurement": "growth inhibition call", "setting": "S. aureus RN4220", "value": "inactive"}]}, {"smiles": "Cn1c(=O)[nH]c(=O)c2[nH]cnc21", "values": [{"measurement": "cytotoxicity call", "setting": "HSkMC", "value": "inactive"}, {"measurement": "cytotoxicity call", "setting": "HepG2", "value": "inactive"}, {"measurement": "growth inhibition call", "setting": "S. aureus RN4220", "value": "inactive"}]}, {"smiles": "C=C(/C=C/CNS(=O)(=O)c1ccc(C)cc1)[C@H](O)[C@H]1CCCN1S(=O)(=O)c1ccccc1[N+](=O)[O-]", "values": [{"measurement": "cytotoxicity call", "setting": "HSkMC", "value": "inactive"}, {"measurement": "cytotoxicity call", "setting": "HepG2", "value": "inactive"}, {"measurement": "growth inhibition call", "setting": "S. aureus RN4220", "value": "inactive"}]}, {"smiles": "O=C(C[C@@H]1C[C@H]2c3cc(NS(=O)(=O)c4ccc(F)cc4)ccc3O[C@H]2[C@@H](CO)O1)NCc1ccccc1", "values": [{"measurement": "cytotoxicity call", "setting": "HSkMC", "value": "inactive"}, {"measurement": "cytotoxicity call", "setting": "HepG2", "value": "inactive"}, {"measurement": "growth inhibition call", "setting": "S. aureus RN4220", "value": "inactive"}]}, {"smiles": "CC(=O)OC[C@H]1O[C@H](n2ccc(=O)[nH]c2=O)[C@@H](OC(C)=O)[C@@H]1OC(C)=O", "values": [{"measurement": "cytotoxicity call", "setting": "HSkMC", "value": "inactive"}, {"measurement": "cytotoxicity call", "setting": "HepG2", "value": "inactive"}, {"measurement": "growth inhibition call", "setting": "S. aureus RN4220", "value": "inactive"}]}, {"smiles": "Cc1noc(C)c1NC(=O)N(C)C[C@H]1Oc2ccc(NS(=O)(=O)c3c(C)noc3C)cc2C(=O)N([C@H](C)CO)C[C@H]1C", "values": [{"measurement": "cytotoxicity call", "setting": "HSkMC", "value": "inactive"}, {"measurement": "cytotoxicity call", "setting": "HepG2", "value": "inactive"}, {"measurement": "growth inhibition call", "setting": "S. aureus RN4220", "value": "inactive"}]}, {"smiles": "C[C@@H]1CCCCO[C@H](CN(C)C(=O)Nc2ccc(F)cc2)[C@H](C)CN([C@@H](C)CO)C(=O)c2cc(NS(=O)(=O)c3ccccc3)ccc2O1", "values": [{"measurement": "cytotoxicity call", "setting": "HSkMC", "value": "inactive"}, {"measurement": "cytotoxicity call", "setting": "HepG2", "value": "inactive"}, {"measurement": "growth inhibition call", "setting": "S. aureus RN4220", "value": "inactive"}]}, {"smiles": "COc1ccc(S(=O)(=O)N(C)C[C@@H]2OCCCC[C@H](C)Oc3ccc(NS(=O)(=O)c4ccc(Cl)cc4)cc3C(=O)N([C@H](C)CO)C[C@@H]2C)cc1", "values": [{"measurement": "cytotoxicity call", "setting": "HSkMC", "value": "inactive"}, {"measurement": "cytotoxicity call", "setting": "HepG2", "value": "active"}, {"measurement": "growth inhibition call", "setting": "S. aureus RN4220", "value": "inactive"}]}, {"smiles": "C[C@H](CO)N1C[C@H](C)[C@H](CN(C)C(=O)Nc2cccc3ccccc23)Oc2ccc(NC(=O)Nc3ccc(C(F)(F)F)cc3)cc2CC1=O", "values": [{"measurement": "cytotoxicity call", "setting": "HSkMC", "value": "inactive"}, {"measurement": "cytotoxicity call", "setting": "HepG2", "value": "inactive"}, {"measurement": "growth inhibition call", "setting": "S. aureus RN4220", "value": "inactive"}]}, {"smiles": "C[C@@H]1CN([C@@H](C)CO)C(=O)c2cccc(NC(=O)C3CCCCC3)c2O[C@H]1CN(C)Cc1ccc(C(=O)Nc2ccccc2N)cc1", "values": [{"measurement": "cytotoxicity call", "setting": "HSkMC", "value": "inactive"}, {"measurement": "cytotoxicity call", "setting": "HepG2", "value": "inactive"}, {"measurement": "growth inhibition call", "setting": "S. aureus RN4220", "value": "inactive"}]}, {"smiles": "COc1cccc2ccc(Cl)nc12", "values": [{"measurement": "cytotoxicity call", "setting": "HSkMC", "value": "inactive"}, {"measurement": "cytotoxicity call", "setting": "HepG2", "value": "inactive"}, {"measurement": "growth inhibition call", "setting": "S. aureus RN4220", "value": "inactive"}]}, {"smiles": "O=C(CCCCC(=O)N/N=C/[C@@H](O)[C@@H](O)[C@H](O)[C@H](O)CO)NO", "values": [{"measurement": "cytotoxicity call", "setting": "HSkMC", "value": "inactive"}, {"measurement": "cytotoxicity call", "setting": "HepG2", "value": "inactive"}, {"measurement": "growth inhibition call", "setting": "S. aureus RN4220", "value": "inactive"}]}, {"smiles": "C[C@@H]1CCCCO[C@H](CN(C)C(=O)Cc2ccccc2)[C@@H](C)CN([C@H](C)CO)C(=O)c2cc(NC(=O)Nc3ccc(C(F)(F)F)cc3)ccc2O1", "values": [{"measurement": "cytotoxicity call", "setting": "HSkMC", "value": "inactive"}, {"measurement": "cytotoxicity call", "setting": "HepG2", "value": "inactive"}, {"measurement": "growth inhibition call", "setting": "S. aureus RN4220", "value": "inactive"}]}, {"smiles": "COc1ccc(S(=O)(=O)N(C)C[C@@H]2Oc3ccc(NC(=O)c4ccncc4)cc3CC(=O)N([C@@H](C)CO)C[C@@H]2C)cc1", "values": [{"measurement": "cytotoxicity call", "setting": "HSkMC (human skeletal muscle cells)", "value": "inactive"}, {"measurement": "cytotoxicity call", "setting": "HepG2", "value": "inactive"}, {"measurement": "growth inhibition call", "setting": "S. aureus RN4220", "value": "inactive"}]}]}
